The campaign covered roughly 46,000 compounds. About 60 (0.1%) were called active. Another 3% or so got no clear call; they are omitted. Calls come from the whole dose curve; as a rule, active = well fitted inhibition curve with a large enough effect; inconclusive = small, poorly fitted or top-dose-only effect; inactive = no such curve, though single readings can be large or run the other way. The list shows a part of the results.
Experiment: Primary qHTS assay for Inhibitors of ovarian cancer metastasis using an organotypic tumor microenvironment (TME) model.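 For activity change, negative = inhibition: plate controls were DMSO wells for no effect and tomatine positive control wells for full effect.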 Note: nearly all actives have a fitted effect of over 65% in size.
Conditions: SKOV3ip1-GFP adhesion/invasion on 3D omental model, fluorescence; series mostly up to 45.8 µM; activity change, negative = inhibition: at the top concentration
In short: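 A 3D layer of primary human omental fibroblasts, mesothelial cells, fibronectin and collagen I, grown 48 hr, received SKOV3ip1-GFP cells in serum-free medium plus compounds at 0.36-46 umol/L. After 2 hr RT and 16 hr 37 C, fixed adherent GFP cells were counted; normalized to DMSO and tomatine.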

Activity change, negative = inhibition, inactive:
COc1ccc(N(C)C(=O)c2nc(-c3cccc(F)c3)n3c2CCCCC3)c(OC)c1 -0.0494%
Cc1c(C(=O)Nc2ccc(-c3nc4cc(Cl)ccc4o3)cc2)oc2ccccc12 14.3%
Cc1ccccc1NC(=O)CSc1cn(CC(=O)N2CCCC2)c2ccccc12 -0.656%
CCCCn1c(=O)c2oc3ccccc3c2n(Cc2cccc(C)c2)c1=O -9.44%
COc1cc2oc(=O)c(CC(=O)NCc3ccc(OC)c(OC)c3)c(C)c2cc1Cl 9.84%
Cc1ccc(-c2noc(-c3ccc(N4CCCCC4C)c([N+](=O)[O-])c3)n2)cc1 (configuration not stated) -4.25%
CCS(=O)(=O)N1CCC2(CC1)OC(=O)C(C)=C2C(=O)NCc1ccccc1C 0.82%
Cc1c(-c2cccc(NC(=O)Nc3ccccc3)c2)nc2ncccn12 -26%
Cc1ccc(S(=O)(=O)N2CCc3cc(C(=O)NCCc4ccccc4)ccc32)cc1 -20.1%
CC1(C)O[C@@H]2C[C@@H]3[C@H]4C[C@@H](F)C5=CC(=O)C=C[C@]5(C)[C@@]4(F)[C@@H](O)C[C@]3(C)[C@]2(C(=O)CO)O1 27.1%
CCc1nnc2c(Nc3cccc(C(C)=O)c3)nc3ccccc3n12 11.7%
COc1ccc(-c2cc(C(F)(F)F)nc(SCC(=O)NCc3ccc(OC)c(OC)c3)n2)cc1 12.9%
COc1ccc2c(c1)cc1c(=O)n(CC(=O)NCc3ccco3)nc(C)n12 -7.57%
COc1ccccc1N(CC(=O)NCCSCc1ccccc1)S(C)(=O)=O 50.9%
COc1ccc(C)cc1NC(=O)CN(c1ccccc1)S(=O)(=O)N(C)C 13%
CCCCc1nn2c(=O)cc(COC(=O)COc3ccc(C)cc3)nc2s1 124%
COc1cccc(C(=O)Nc2cccc(OCc3cc(=O)n4cc(C)ccc4n3)c2)c1 24.8%
CCOc1ccc(C(=O)NCc2ccc3c(c2)CCN3C(=O)c2ccccc2)cc1 14.9%
O=C(Nc1ccc(F)cc1Cl)n1ncc2cc(Cl)ccc21 0.574%
CC1=C(C(=O)Nc2ccc(C)cc2C)C(c2ccc(O)cc2)n2nnnc2N1 (configuration not stated) 26.2%
CCc1ccc(NC(=O)CSC2=Nc3ccccc3C3=NC(CCC(=O)NCCc4ccccc4)C(=O)N23)cc1 (configuration not stated) 8.78%
COc1ccc(/C=C\c2onc(C)c2S(=O)(=O)N2CCC(C(=O)Nc3ccc(C)cc3C)CC2)cc1 1.96%
CCC12CN3CC(C)(CN(C1)C3c1c[nH]c3ccccc13)C2=O (configuration not stated) 1.54%
CCS(=O)(=O)c1ncc(N(Cc2ccco2)Cc2sccc2C)c(C(=O)Nc2ccc(C)cc2C)n1 1.75%
CCCOc1ccc(C(=O)Nc2cccc(NC(=O)c3cccc(Cl)c3)c2)cc1 1.98%
Cc1ccc(CNC(=O)CCc2c(C)nc3nc(CNC(=O)OC(C)(C)C)nn3c2C)cc1 -4.03%
CC(C)c1ccc(-c2nnc3n(CCc4ccccc4)c(=O)c4ccccc4n23)cc1 -0.272%
CC(=O)c1ccc(NS(=O)(=O)c2cc(-c3cc(C)no3)ccc2C)cc1 3.19%
CCC(=O)N1CCc2cc(S(=O)(=O)NCCC(=O)Nc3ccc(C)cc3)ccc21 9.66%
O=C(COc1ccccc1-c1nnc(-c2ccccc2)o1)Nc1ccc(Br)cc1F -5.85%
CC(=O)c1cccc(Nc2ccc3cc(S(=O)(=O)N4CCC(C)CC4)ccc3n2)c1 1.29%
COc1cc(C(=O)n2nc(-c3ccco3)nc2NCc2ccc(Cl)cc2)cc(OC)c1OC 23.6%
COc1ccc(NC(=O)c2c(C)oc3ccc(O)c(CN4CCCC4)c23)cc1Cl 20.4%
Cc1cccc(NCc2nc3ccccc3n2CCOc2ccccc2C)c1 -14.5%
CCSc1ncc(Cl)c(C(=O)Nc2c(C(=O)Nc3cccc(C)c3)oc3ccccc23)n1 -14.3%
Cc1ccc2nc(-c3ccc(Cl)cc3)cc(C(=O)OCC(=O)c3ccccc3)c2c1 0.673%
COc1ccccc1OCC(=O)Nc1nc2c(s1)CC(C)CC2 (configuration not stated) -5.23%
Cc1cccc(-c2nc(CSc3nncn4c3cc3oc(C)cc34)c(C)o2)c1 -10.5%
COc1ccc(C(=O)NCC(c2ccc(N(C)C)cc2)N2CCCC2)c(OC)c1 (configuration not stated) 17.8%
CCC(Cn1nnc2ccccc2c1=O)NC(=O)Nc1ccc(C)cc1C (configuration not stated) -3.97%
CC1CCC(NC(=O)C2(C)Cc3ccccc3C(=O)N2Cc2ccc(F)cc2)CC1 (configuration not stated) -6.58%
COc1ccc(C(=O)NCCc2sc(-c3ccc(F)cc3)nc2C)cc1OC 7.72%
CCc1ccc(C2Sc3ccccc3NC3=C2C(=O)c2ccccc23)cc1 (configuration not stated) 2%
Cc1ccc(C2c3[nH]c4ccccc4c3CCN2C(=O)Nc2ccc(C)c(C)c2)cc1 (configuration not stated) 6.91%
CCOc1ccccc1C(=O)NCc1ccc2c(c1)CCN2C(C)=O -25.6%
COc1ccc(C2(CNC(=O)C(=O)Nc3cccc(C(F)(F)F)c3)CCCC2)cc1OC 1.94%
Cc1cccc(NC(=O)C2CCCN(S(=O)(=O)c3cccc4nonc34)C2)c1 (configuration not stated) 25.2%
CC(=O)c1cccc(NC(=O)c2nc(-c3ccc(C)cc3)n3c2CCCCC3)c1 -1.16%
O=C(NCCc1ccc(Cl)cc1)c1ccc(CSCc2ccccc2Cl)o1 22.9%
Cc1ccc(NC(=O)C(=O)NCc2ccc(Cl)cc2)cc1 -1.04%

outcome, inactive:
Cc1c(Cl)cccc1NC(=O)c1cc2sccc2n1Cc1ccc(F)cc1
Cc1cc(-c2ccc(S(=O)(=O)NCc3ccccc3Cl)s2)on1
Cc1ccc(-c2cc(-c3coc4ccccc4c3=O)c3c(n2)-c2ccccc2OC3)cc1
CCOc1ccc(NC(=O)CN2CCN(C3CCCCC3)C(=O)C2=O)cc1
COc1cccc(Cn2c(=O)cc(C)c3c(C)nn(-c4ccc(C)cc4)c32)c1
CCCCc1nn2c(=O)cc(COC(=O)c3cccc(OC)c3)nc2s1
CCOC(=O)CN1C(=O)c2ccccc2Sc2ncccc21
COc1ccc(NC(=O)CN2C(=O)COc3ccc(S(=O)(=O)Nc4ccccc4)cc32)cc1
CCc1ccc(CNC(=O)c2ccc3c(c2)nc2n3CCC(C)C2)cc1 (configuration not stated)
COc1ccc(-c2onc(C)c2C)cc1S(=O)(=O)NCc1ccco1
CCCNC(=O)CCNS(=O)(=O)c1ccc2c(c1)c(=O)n(C)c(=O)n2C
CCC(C(=O)NC1CCCCC1)n1c(SCc2ccc(F)cc2)nc2ccncc21 (configuration not stated)

Reference: PubChem BioAssay AID1963576 (National Center for Advancing Translational Sciences (NCATS), 2024)
